Laboratory results from the supplement of paper PMC8728848.
This is one part of the list.

Legend:
Assay in all cases: glycan array binding signal (z-score within array); higher = stronger binding
Conditions in all cases: glycan notation: IUPAC condensed, linker removed
[1] = biological target: Fuc(a1-2)Gal(b1-4)GlcNAc(b1-3)Gal(b1-4)GlcNAc(b1-2)Man(a1-3)[Fuc(a1-2)Gal(b1-4)GlcNAc(b1-3)Gal(b1-4)GlcNAc(b1-2)Man(a1-6)]Man(b1-4)GlcNAc(b1-4)GlcNAc
Procedure, shortened: (§1)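 From the Consortium for Functional Glycomics database, 3228 arrays were curated, keeping only those whose protein sequence was available. Binding is given as a within-array Z-score averaged across arrays sharing a protein sequence and across linkers. Negative Z-scores can be read as non-binding.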

[2] = biological target: Fuc(a1-2)Gal(b1-4)GlcNAc(b1-3)Gal(b1-4)GlcNAc(b1-3)Gal(b1-4)GlcNAc
Procedure, shortened: as §1

[3] = biological target: Fuc(a1-2)Gal(b1-4)GlcNAc(b1-3)GalNAc
Procedure, shortened: as §1

[4] = biological target: Fuc(a1-2)Gal(b1-4)GlcNAc(b1-3)[Fuc(a1-2)Gal(b1-4)GlcNAc(b1-6)]GalNAc
Procedure, shortened: as §1

[5] = biological target: Fuc(a1-2)Gal(b1-4)GlcNAc(b1-3)[Fuc(a1-3)[Gal(b1-4)]GlcNAc(b1-6)]Gal(b1-4)Glc
Procedure, shortened: as §1

[6] = biological target: Fuc(a1-2)Gal(b1-4)GlcNAc(b1-6)GalNAc
Procedure, shortened: as §1

[7] = biological target: Fuc(a1-2)Gal(b1-4)GlcNAc6S
Procedure, shortened: as §1

[8] = biological target: Fuc(a1-2)Gal(b1-4)[Fuc(a1-3)]GlcNAc
Procedure, shortened: as §1

[9] = biological target: Fuc(a1-2)Gal(b1-4)[Fuc(a1-3)]GlcNAc(b1-2)Man(a1-3)[Fuc(a1-2)Gal(b1-4)[Fuc(a1-3)]GlcNAc(b1-2)Man(a1-6)]Man(b1-4)GlcNAc(b1-4)[Fuc(a1-6)]GlcNAc
Procedure, shortened: as §1

[10] = biological target: Fuc(a1-2)Gal(b1-4)[Fuc(a1-3)]GlcNAc(b1-2)[Fuc(a1-2)Gal(b1-4)[Fuc(a1-3)]GlcNAc(b1-4)]Man(a1-3)[Fuc(a1-2)Gal(b1-4)[Fuc(a1-3)]GlcNAc(b1-2)Man(a1-6)]Man(b1-4)GlcNAc(b1-4)GlcNAc
Procedure, shortened: as §1

[11] = biological target: Fuc(a1-2)Gal(b1-4)[Fuc(a1-3)]GlcNAc(b1-3)Gal(b1-4)[Fuc(a1-3)]GlcNAc
Procedure, shortened: as §1

[12] = biological target: Fuc(a1-2)Gal(b1-4)[Fuc(a1-3)]GlcNAc(b1-3)Gal(b1-4)[Fuc(a1-3)]GlcNAc(b1-3)Gal(b1-4)[Fuc(a1-3)]GlcNAc
Procedure, shortened: as §1

[13] = biological target: Fuc(a1-2)Gal(b1-4)[Fuc(a1-3)]GlcNAc(b1-3)GalNAc
Procedure, shortened: as §1

[14] = biological target: Fuc(a1-2)Gal(b1-4)[Fuc(a1-3)]GlcNAc(b1-3)[Neu5Ac(a2-6)Gal(b1-4)GlcNAc(b1-6)]Gal(b1-4)Glc
Procedure, shortened: as §1

[15] = biological target: Fuc(a1-2)Gal3S(b1-4)GlcNAc
Procedure, shortened: as §1

[16] = biological target: Fuc(a1-2)Gal6S(b1-3)GlcNAc
Procedure, shortened: as §1

[17] = biological target: Fuc(a1-2)Gal6S(b1-3)GlcNAc6S
Procedure, shortened: as §1

Fuc(a1-2)Gal6S(b1-4)Glc = biological target: Fuc(a1-2)Gal6S(b1-4)Glc
Procedure, shortened: as §1

[18] = biological target: Fuc(a1-2)Gal6S(b1-4)Glc6S
Procedure, shortened: as §1

Fuc(a1-2)GlcNAc = biological target: Fuc(a1-2)GlcNAc
Procedure, shortened: as §1

Fuc(a1-2)[Gal(a1-3)]Gal = biological target: Fuc(a1-2)[Gal(a1-3)]Gal
Procedure, shortened: as §1

[19] = biological target: Fuc(a1-2)[Gal(a1-3)]Gal(b1-3)GalNAc
Procedure, shortened: as §1

[20] = biological target: Fuc(a1-2)[Gal(a1-3)]Gal(b1-3)GalNAc(b1-3)Gal(a1-4)Gal(b1-4)Glc
Procedure, shortened: as §1

[21] = biological target: Fuc(a1-2)[Gal(a1-3)]Gal(b1-3)GlcNAc
Procedure, shortened: as §1

[22] = biological target: Fuc(a1-2)[Gal(a1-3)]Gal(b1-3)GlcNAc(b1-2)Man(a1-3)[Fuc(a1-2)[Gal(a1-3)]Gal(b1-3)GlcNAc(b1-2)Man(a1-6)]Man(b1-4)GlcNAc(b1-4)GlcNAc
Procedure, shortened: as §1

[23] = biological target: Fuc(a1-2)[Gal(a1-3)]Gal(b1-3)GlcNAc(b1-2)Man(a1-3)[Fuc(a1-2)[Gal(a1-3)]Gal(b1-3)GlcNAc(b1-2)Man(a1-6)]Man(b1-4)GlcNAc(b1-4)[Fuc(a1-6)]GlcNAc
Procedure, shortened: as §1

[24] = biological target: Fuc(a1-2)[Gal(a1-3)]Gal(b1-3)GlcNAc(b1-3)GalNAc
Procedure, shortened: as §1

[25] = biological target: Fuc(a1-2)[Gal(a1-3)]Gal(b1-3)GlcNAc(b1-6)GalNAc
Procedure, shortened: as §1

[26] = biological target: Fuc(a1-2)[Gal(a1-3)]Gal(b1-4)Glc
Procedure, shortened: as §1

[27] = biological target: Fuc(a1-2)[Gal(a1-3)]Gal(b1-4)GlcNAc
Procedure, shortened: as §1

[28] = biological target: Fuc(a1-2)[Gal(a1-3)]Gal(b1-4)GlcNAc(b1-2)Man
Procedure, shortened: as §1

[29] = biological target: Fuc(a1-2)[Gal(a1-3)]Gal(b1-4)GlcNAc(b1-2)Man(a1-3)[Fuc(a1-2)[Gal(a1-3)]Gal(b1-4)GlcNAc(b1-2)Man(a1-6)]Man(b1-4)GlcNAc(b1-4)GlcNAc
Procedure, shortened: as §1

[30] = biological target: Fuc(a1-2)[Gal(a1-3)]Gal(b1-4)GlcNAc(b1-2)Man(a1-3)[Fuc(a1-2)[Gal(a1-3)]Gal(b1-4)GlcNAc(b1-2)Man(a1-6)]Man(b1-4)GlcNAc(b1-4)[Fuc(a1-6)]GlcNAc
Procedure, shortened: as §1

[31] = biological target: Fuc(a1-2)[Gal(a1-3)]Gal(b1-4)GlcNAc(b1-3)GalNAc
Procedure, shortened: as §1

[32] = biological target: Fuc(a1-2)[Gal(a1-3)]Gal(b1-4)GlcNAc(b1-6)GalNAc
Procedure, shortened: as §1

[33] = biological target: Fuc(a1-2)[Gal(a1-3)]Gal(b1-4)[Fuc(a1-3)]Glc
Procedure, shortened: as §1

[34] = biological target: Fuc(a1-2)[Gal(a1-3)]Gal(b1-4)[Fuc(a1-3)]GlcNAc
Procedure, shortened: as §1

B1: AMA (Arum maculatun) (protein)
chain: MAKLLLLLLLPAIVGLAVPRSAAAVGSNYMLSGETLNTDGRLTNGELTLIMQVDCNLVLYHGGWQSNTANNGRDCKLTLTDFGELVIKSGTGSTVWSSGSKQSMKGNYAAVVHPEGRLVIYGPSVFKINPSGAGLNGLPLRNIPLTNNMLFSGQVLYGDGTLSARNHKLVMQGDCNMVLYGGKYGWQSNTHGNGKYCFAMLTHKGELVIRDDDFKSVWSSKSSSKQGDYVFILQDDSLAIIYGPAVFSTGSKKMISMVTN
For B1, the “glycan array binding signal (z-score)” value [1] was 0.536, the “glycan array binding signal (z-score)” value [2] was -0.154 and the “glycan array binding signal (z-score)” value [3] was -0.222. The “glycan array binding signal (z-score)” value [4] was -0.212, the “glycan array binding signal (z-score)” value [5] was -0.213 and the “glycan array binding signal (z-score)” value [6] was -0.209. The “glycan array binding signal (z-score)” value [7] was -0.217, the “glycan array binding signal (z-score)” value [8] was -0.22 and the “glycan array binding signal (z-score)” value [9] was 1.12. The “glycan array binding signal (z-score)” value [10] was -0.176, the “glycan array binding signal (z-score)” value [11] was -0.211 and the “glycan array binding signal (z-score)” value [12] was -0.209. The “glycan array binding signal (z-score)” value [13] was -0.197, the “glycan array binding signal (z-score)” value [14] was -0.206 and the “glycan array binding signal (z-score)” value [15] was -0.211. For the same binder, the “glycan array binding signal (z-score)” value [16] was -0.22, the “glycan array binding signal (z-score)” value [17] was -0.193 and the “glycan array binding signal (z-score)” value (Fuc(a1-2)Gal6S(b1-4)Glc) was -0.208. For the same binder, the “glycan array binding signal (z-score)” value [18] was -0.208, the “glycan array binding signal (z-score)” value (Fuc(a1-2)GlcNAc) was -0.234 and the “glycan array binding signal (z-score)” value (Fuc(a1-2)[Gal(a1-3)]Gal) was -0.206. For the same binder, the “glycan array binding signal (z-score)” value [19] was -0.211, the “glycan array binding signal (z-score)” value [20] was -0.22 and the “glycan array binding signal (z-score)” value [21] was -0.191. The “glycan array binding signal (z-score)” value [22] was 0.496, the “glycan array binding signal (z-score)” value [23] was 0.7 and the “glycan array binding signal (z-score)” value [24] was -0.22. For the same binder, the “glycan array binding signal (z-score)” value [25] was -0.221, the “glycan array binding signal (z-score)” value [26] was -0.205 and the “glycan array binding signal (z-score)” value [27] was -0.222. For the same binder, the “glycan array binding signal (z-score)” value [28] was -0.215, the “glycan array binding signal (z-score)” value [29] was 0.463 and the “glycan array binding signal (z-score)” value [30] was 1.04. The “glycan array binding signal (z-score)” value [31] was -0.187, the “glycan array binding signal (z-score)” value [32] was -0.214 and the “glycan array binding signal (z-score)” value [33] was -0.214. The “glycan array binding signal (z-score)” value [34] was -0.211.
